The target in assay [1] is T1, Emp24-CFP (p24 complex subunit) (S. cerevisiae) (UniProt P32803).
T1 sequence: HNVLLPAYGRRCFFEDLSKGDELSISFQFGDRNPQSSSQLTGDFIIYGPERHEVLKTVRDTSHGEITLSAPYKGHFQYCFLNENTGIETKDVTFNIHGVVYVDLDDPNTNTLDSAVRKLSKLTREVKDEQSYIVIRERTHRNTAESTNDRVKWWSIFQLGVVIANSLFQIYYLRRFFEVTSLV
The assay is described as follows: co-IP; native co-IP of GFP- or CFP-tagged bait with GFP-Trap_A (3 h, 4 °C) from S13 enriched-Golgi fraction solubilized with 1% Triton X-100 in HEPES buffer (20 mM HEPES pH 7.2, 100 mM KCl, 5 mM MgCl2); immunoblot; wild-type, emp24Δ, or erg6Δ cells with or without 100 µg/mL BFA. (In general: A western blot detects proteins with antibodies after separation by electrophoresis.)

Chains of the proteins cited; added tags and fusions are not shown.
UniProt P11075: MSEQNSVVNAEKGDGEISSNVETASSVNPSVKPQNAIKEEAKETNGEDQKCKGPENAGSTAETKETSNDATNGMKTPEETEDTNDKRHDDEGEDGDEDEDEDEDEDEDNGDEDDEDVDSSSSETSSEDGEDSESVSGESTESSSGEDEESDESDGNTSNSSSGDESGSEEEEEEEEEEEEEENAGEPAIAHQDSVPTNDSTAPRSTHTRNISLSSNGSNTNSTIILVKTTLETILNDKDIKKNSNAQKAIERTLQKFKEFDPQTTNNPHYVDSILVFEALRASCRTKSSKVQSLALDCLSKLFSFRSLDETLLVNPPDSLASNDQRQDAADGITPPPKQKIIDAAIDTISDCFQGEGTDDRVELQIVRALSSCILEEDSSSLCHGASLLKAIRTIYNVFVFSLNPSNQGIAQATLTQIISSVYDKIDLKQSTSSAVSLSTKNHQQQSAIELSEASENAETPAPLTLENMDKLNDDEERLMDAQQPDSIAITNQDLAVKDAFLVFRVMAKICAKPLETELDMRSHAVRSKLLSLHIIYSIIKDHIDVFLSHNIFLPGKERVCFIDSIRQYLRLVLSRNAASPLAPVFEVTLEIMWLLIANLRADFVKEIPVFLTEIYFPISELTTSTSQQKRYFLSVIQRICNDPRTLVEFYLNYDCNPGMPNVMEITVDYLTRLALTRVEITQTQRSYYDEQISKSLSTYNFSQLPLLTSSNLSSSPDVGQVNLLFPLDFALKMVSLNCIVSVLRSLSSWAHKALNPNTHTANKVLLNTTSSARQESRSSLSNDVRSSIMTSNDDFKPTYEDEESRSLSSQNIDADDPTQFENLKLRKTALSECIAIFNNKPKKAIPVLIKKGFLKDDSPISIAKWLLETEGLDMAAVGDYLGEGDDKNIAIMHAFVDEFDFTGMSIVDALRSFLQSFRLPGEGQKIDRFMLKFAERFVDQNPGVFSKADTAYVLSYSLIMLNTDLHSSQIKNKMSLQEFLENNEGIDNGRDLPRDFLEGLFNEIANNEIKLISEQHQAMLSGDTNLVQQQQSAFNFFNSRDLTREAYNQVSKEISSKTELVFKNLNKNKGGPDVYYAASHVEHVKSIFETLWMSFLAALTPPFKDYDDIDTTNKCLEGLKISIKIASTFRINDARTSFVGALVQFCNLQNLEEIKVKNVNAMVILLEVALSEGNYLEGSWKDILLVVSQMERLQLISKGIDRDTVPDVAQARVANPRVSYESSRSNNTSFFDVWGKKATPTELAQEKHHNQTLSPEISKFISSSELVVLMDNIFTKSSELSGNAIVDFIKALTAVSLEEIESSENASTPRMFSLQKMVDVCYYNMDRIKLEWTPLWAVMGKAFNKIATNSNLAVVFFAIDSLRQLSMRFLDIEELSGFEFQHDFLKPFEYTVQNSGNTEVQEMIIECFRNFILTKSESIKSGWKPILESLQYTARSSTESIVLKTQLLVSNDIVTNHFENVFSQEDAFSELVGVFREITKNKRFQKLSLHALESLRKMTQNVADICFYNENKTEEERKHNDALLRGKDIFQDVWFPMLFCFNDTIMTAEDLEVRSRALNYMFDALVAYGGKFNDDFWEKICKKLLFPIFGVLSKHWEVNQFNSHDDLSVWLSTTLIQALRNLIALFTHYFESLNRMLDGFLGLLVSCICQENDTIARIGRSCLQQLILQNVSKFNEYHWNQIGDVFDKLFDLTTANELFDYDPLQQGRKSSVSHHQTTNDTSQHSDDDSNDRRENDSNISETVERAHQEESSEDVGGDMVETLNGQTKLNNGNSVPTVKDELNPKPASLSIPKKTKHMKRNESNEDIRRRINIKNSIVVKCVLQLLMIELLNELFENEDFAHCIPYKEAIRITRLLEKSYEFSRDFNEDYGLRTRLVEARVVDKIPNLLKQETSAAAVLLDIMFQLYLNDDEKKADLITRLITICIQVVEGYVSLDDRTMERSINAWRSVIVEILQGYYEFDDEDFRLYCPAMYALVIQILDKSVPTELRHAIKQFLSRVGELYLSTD

In assay [2] the target is T2, Erv25 cytoplasmic tail peptide (…) (S. cerevisiae).
T2 sequence (peptide, N-terminal cysteine linked to thiopropyl-Sepharose 6B): CKNYFKTKHII
As to the kind of experiment: pull-down; synthetic tail peptides coupled by an N-terminal cysteine to thiopropyl-Sepharose 6B beads, incubated with cytosol of a wild-type strain expressing HA-Gea1; bound material by SDS-PAGE and immunoblot; only the target purified.

Assay [3] concerns the target T1, Emp24-CFP (p24 complex subunit) (S. cerevisiae). As to the kind of experiment: co-IP; native co-IP of GFP- or CFP-tagged bait with GFP-Trap_A (3 h, 4 °C) from S13 enriched-Golgi fraction solubilized with 1% Triton X-100 in HEPES buffer (20 mM HEPES pH 7.2, 100 mM KCl, 5 mM MgCl2); immunoblot; wild-type, emp24Δ, or erg6Δ cells with or without 100 µg/mL BFA. This is another data set of the same source.

The target of a further assay is T3, Arf1-GFP (S. cerevisiae) (UniProt P11076).
T3 sequence: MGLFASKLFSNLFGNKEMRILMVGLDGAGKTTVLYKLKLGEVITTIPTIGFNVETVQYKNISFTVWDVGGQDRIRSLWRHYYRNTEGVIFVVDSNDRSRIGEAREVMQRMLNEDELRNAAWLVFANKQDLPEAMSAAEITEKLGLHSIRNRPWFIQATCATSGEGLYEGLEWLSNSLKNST
The assay is described as above.

Like-named read-outs stand apart in the source and are kept apart here. Results are given in words; binding and its absence hold for the method and conditions named. Binding seen in cells or lysates may run through a third protein. Some entries that bind do so weakly or less than the wild type. For some of these results: Sequences can lack the tags named with a protein.

Take Sec7-dsRed (from UniProt P11075 1-2009): the binding result in assay [1] is reported as “no binding”.

B1: Cop1 (yeast α-COP), COPI coat subunit (protein, UniProt P53622 1-1201)
chain: MKMLTKFESKSTRAKGIAFHPSRPWVLVALFSSTIQLWDYRMGTLLHRFEDHEGPVRGLDFHPTQPIFVSAGDDYTIKVWSLDTNKCLYTLTGHLDYVRTVFFHRELPWIISASDDQTIRIWNWQNRKEIACLTGHNHFVMCAQFHPTDDLIVSASLDETIRIWDISGLRKRHSAPGTSSFEEQMSAQQNLLDGSLGDCVVKFILEGHTRGVNWASFHPTLPLIVSGSDDRQVKLWRMSATKAWEVDTCRGHTNNVDSVIFHPHQNLIISVGEDKTLRVWDLDKRTPVKQFKRENDRFWLIAAHPHINLFGAAHDSGIMVFKLDRERPCSFIHQNQLFFVNAEKQIQSFNFQKRVASLPYASLKGIGQPWDAFRSISYNPSQHSVLVNEANGKFALVILPKQPVGAVEPTSVTQDTGNFATFVGRNRFVVYNKNTESVEVRSLENKVTRNIKVEETVRTIVAAGPGSVLVIHPREVILYDVQQGKKVSQLAVKNVKYVSWSLDGQYVALMSKHTITLATKKLELINSMHETIRIKSAAWDETGVLIYSTLNHIRYSLLNGDRGIIKTLEKTLYITKVQGKLVYCLNREGEIEILTIDPTEYRFKKALVNKNFPEVLRLIKDSNLVGQNIISYLQKSGYPEIALQFVQDPHIRFDLALEYGNLDVALDEAKKLNDSSTWERLIQEALAQGNASLAEMIYQTQHSFDKLSFLYLVTGDVNKLSKMQNIAQTREDFGSMLLNTFYNNSTKERSSIFAEGGSLPLAYAVAKANGDEAAASAFLEQAEVDEQDVTLPDQMDASNFVQRPVISKPLEKWPLKEAELSYFEKAVLGQIDDLTIDDETPAVNTTQEQEEPLGEENFNDEDIGEDEGAWDLGDEDLDVGEELPEEVEQGEITSPAQEVETAIWIKNSKLPAVLVAAGAFDAAVQALSKQVGVVKLEPLKKYFTNIYEGCRTYIPSTPCELPAQLGYVRAYDDTVSEDQILPYVPGLDVVNEKMNEGYKNFKLNKPDIAIECFREAIYRITLLMVDDAEDEKLAHKILETAREYILGLSIELERRSLKEGNTVRMLELAAYFTKAKLSPIHRTNALQVAMSQHFKHKNFLQASYFAGEFLKIISSGPRAEQARKIKNKADSMASDAIPIDFDPYAKFDICAATYKPIYEDTPSVSDPLTGSKYVITEKDKIDRIAMISKIGAPASGLRIRV
With B1, the binding entry (in assay [2]; in assay [3]; with Arf1-GFP (S. cerevisiae)) was “binds” in each case.

For the origin of these results see PMC7794930.
